Data as given in PubChem BioAssay AID1345082 (National Center for Advancing Translational Sciences (NCATS), 2018).
Among all 94,000 compounds or so, about 4,000 (4.3%) were called active. The shares of active, inactive and inconclusive entries below differ from those in the screen. Calls come from the whole dose curve; as a rule, active = well fitted inhibition curve with a large enough effect; inconclusive = small, poorly fitted or top-dose-only effect; inactive = no such curve, though single readings can be large or run the other way. Potencies beside an inconclusive call are fits to weak or partial responses and may not hold up.

Assay: Cytotoxic Profiling in NIH 3T3 Cell Line of Diverse Libraries Using Quantitative High-Throughput Screening; note: nearly all actives have a fitted effect of over 55% in size
Conditions: NIH 3T3 viability, CellTiter-Glo ATP luminescence, 48-72 h; activity change, negative = cytotoxicity: at 96.7 µM (top of the series) unless noted; series mostly up to 96.7 µM
Outline: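 NIH 3T3 cells at 400 cells/well received 23 nL of compound by pintool and were incubated 48 or 72 h at 37 °C. Viability was read as ATP-coupled CellTiter-Glo luminescence.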
% is set by controls: 0 for no effect and ±100 for the full control effect; potency is the fitted concentration of half-maximal effect; tags give direction and shape of the fitted curve.

SMILES | Potency | activity change, negative = cytotoxicity
Cc1nnc(-c2cc(N3C[C@@H](C)O[C@@H](C)C3)ccn2)n1C1CCCCC1 | inconclusive: 89.1 µM [inhibitor, partial curve, poor fit] | 
OCc1cccc(-c2cc3c(cn2)CN(Cc2ccccc2)CCN3)c1 | inconclusive: 79.4 µM [inhibitor, partial curve] | 
COc1ccc(C(=O)N2CCC(C(NC(=O)c3ccccc3Cl)C(=O)N3CCCCC3)CC2)cc1 (stereo unspecified) | inconclusive: 70.8 µM [inhibitor, single point] | 
CC(c1ccc(-c2ccc(N(C)C)nn2)cc1)N(C)C (stereo unspecified) |  | inactive: -11.3%
COc1cccc(C(=O)N2CCC(C(NC(=O)c3ccccc3C)C(=O)NCC(C)C)CC2)c1 (stereo unspecified) | inconclusive: 56.2 µM [inhibitor, partial curve, poor fit] | 
O=C(CN1C(=O)NC(c2ccccc2Cl)C2=C1COC2=O)Nc1cc(F)cc(F)c1 (stereo unspecified) | inconclusive: 44.7 µM [inhibitor, partial curve, poor fit] | 
Cc1ccc(-c2nc(C(=O)NCc3cc(F)cc(F)c3)no2)cc1 | inconclusive: 44.7 µM [inhibitor, partial curve, poor fit] | 
O=C(C[C@@H]1C[C@H]2O[C@H](CNCc3cnccc3Cl)[C@@H](O)[C@H]2O1)N1CCOCC1 |  | inactive: -2.97% [at 174 µM]
O=C1NCc2ccccc2CC12CCN(Cc1ccc3ccccc3c1)C2 (stereo unspecified) | inconclusive: 50.1 µM [inhibitor, partial curve, poor fit] | 
CCCCCNC(=O)c1ccc(-c2ccc(OC)nn2)cc1 |  | inactive: -21.1% [at 138 µM]
COc1ccc(CCNC(=O)C2CCc3nnc(CNC(=O)NC(C)(C)C)n32)cc1 (stereo unspecified) |  | inactive: -6.22%
O=S(=O)(NCC1CN(CC2CC2)CC12CCCCC2)c1ccccc1 (stereo unspecified) | inconclusive: 50.1 µM [inhibitor, partial curve, poor fit] | 
COc1ccc(C(=O)NC2CCN(c3cc(-c4cccs4)[nH]n3)C2)cc1F (stereo unspecified) | inconclusive: 50.1 µM [inhibitor, partial curve, poor fit] | 
N#Cc1cccc(C(=O)NC2CCCN(c3cc(-c4ccc(Cl)cc4)[nH]n3)C2)c1 (stereo unspecified) | inconclusive: 70.8 µM [inhibitor, partial curve, poor fit] | 
COc1ccc(CN2CCNc3cnc(Nc4ccccc4)cc3C2)cc1O | inconclusive: 56.2 µM [inhibitor, partial curve, poor fit] | 
O=C(c1ccccc1)N1CCc2nc(-c3ccccc3)nc(-c3ccc(Cl)cc3)c2C1 | inconclusive: 44.7 µM [inhibitor, partial curve, poor fit] | 
Cc1ccc(OCCC2CCN(C(=O)C(C)C)C2)cc1 (stereo unspecified) | inconclusive: 35.5 µM [inhibitor, partial curve, poor fit] | 
O=C1N(c2ccccc2)c2ccccc2C12CCN([S+](=O)([O-])c1cccs1)C2 (stereo unspecified) |  | inactive: -27.2%
COc1ccc(OC)c(NC(=O)CC2CCCN(c3cn[nH]c(=O)c3)C2)c1 (stereo unspecified) |  | inactive: -3.12%
CCOC(=O)C1CCCN(C(=O)c2cn3cc(-c4cccnc4)sc3n2)C1 (stereo unspecified) |  | inactive: -16.3% [at 138 µM]
Cc1cccc(CN2C[C@@H]3C(C(=O)Nc4ccccc4)=NO[C@@H]3C2)c1 | inconclusive: 89.1 µM [inhibitor, partial curve, poor fit] | 

SMILES | Potency | activity change, negative = cytotoxicity
CCn1cc(CN2CCn3nnc(CCC(=O)N4CCCC4)c3C2)c2ccccc21 | inconclusive: 44.7 µM [inhibitor, partial curve, poor fit] | 
COc1ccc2c(c1)CCN=C2C[C@H]1CN(C(=O)Cc2cccs2)CC[C@H]1CC(=O)O |  | inactive: -10.3% [at 174 µM]
COc1ccc(CN2Cc3[nH]nc(-c4cccc(NC(C)=O)c4)c3CC2=O)cc1 | inconclusive: 22.4 µM [inhibitor, full curve, poor fit] | 
O=C(Cn1ccn2nc(-c3ccccc3)c(CO)c2c1=O)Nc1ccccc1F |  | inactive: -18.8%
Cc1cccc(C)c1NC(=O)Cn1c(C)cc2nc3n(c(=O)c21)CCCCC3 |  | inactive: -6.08%
Cn1ncc2c(C(=O)NCC3CC3)cc(-c3ccsc3)nc21 | active: 89.1 µM | 
COc1ccc(C2(C(=O)NCc3cccc(F)c3)CCOCC2)cc1 |  | inactive: -19.8% [at 138 µM]
CCOc1ccccc1CNC(=O)c1c(C)noc1-c1cccs1 | inconclusive: 50.1 µM [inhibitor, partial curve, poor fit] | 
O=C(CN1CCOC1=O)N1CCCC(CCc2ccc(F)cc2F)C1 (stereo unspecified) | inconclusive: 56.2 µM [inhibitor, partial curve, poor fit] | 
O=[S+]([O-])(Nc1cccnc1)c1ccc2c(c1)OCCN(CCc1ccccc1)C2 | inconclusive: 10 µM [inhibitor, full curve, poor fit] | 
Cn1ncc2c(C(=O)N3CCC(c4ccccc4)CC3)cc(-c3ccc(C(F)(F)F)cc3)nc21 | inconclusive: 44.7 µM [inhibitor, partial curve, poor fit] | 
CC(C)C(=O)NC1CCCc2c1[nH]c1c(Cl)cccc21 (stereo unspecified) | inconclusive: 44.7 µM [inhibitor, partial curve, poor fit] | 
Cc1ccc2nc(-c3ccc(F)cc3)c(CN3CCCC(C(N)=O)C3)cc2c1 (stereo unspecified) | inconclusive: 22.4 µM [inhibitor, full curve] | 
COc1ccc(-c2ccnc3nc(-c4ccccc4OC)nn23)c(F)c1 | inconclusive: 44.7 µM [inhibitor, partial curve, poor fit] | 
COCCN1C(=O)CCc2cc(NC(=O)c3ccc(F)cc3)ccc21 |  | inactive: -18.5%
COCCN1CCCC[C@]2(C[C@H](C(=O)O)[C@H](c3ccco3)N2C(=O)Cc2ccc(F)cc2)C1=O | inconclusive: 79.4 µM [inhibitor, single point] | 
COCCNC(=O)[C@H]1C[C@H](Oc2cccnc2)CN1C(=O)NC(C)C |  | inactive: 3.83%
O=C(Nc1ccccc1CCc1ccccn1)C1CCN(c2cnn(Cc3ccccc3)c(=O)c2)C1 (stereo unspecified) | inconclusive: 50.1 µM [inhibitor, partial curve, poor fit] | 
COc1ccccc1-c1ccc(CN2CCCCC2C(=O)NCC(F)(F)F)cc1 (stereo unspecified) | inconclusive: 20 µM [inhibitor, full curve] | 
CN1C[C@@H]2CC[C@H](CC1=O)N2Cc1ccc(S(C)(=O)=O)cc1 |  | inactive: -6.08%
